From PubChem BioAssay AID1963576 (National Center for Advancing Translational Sciences (NCATS), 2024)
Out of some 46,000 compounds screened, about 60 (0.1%) were called active. About 3% were inconclusive and are not listed. Calls come from the whole dose curve; as a rule, active = well fitted inhibition curve with a large enough effect; inconclusive = small, poorly fitted or top-dose-only effect; inactive = no such curve, though single readings can be large or run the other way. Some of the results follow.

assay: Primary qHTS assay for Inhibitors of ovarian cancer metastasis using an organotypic tumor microenvironment (TME) model.; note: nearly all actives have a fitted effect of over 65% in size;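 for activity change, negative = inhibition: plate controls were DMSO wells for no effect and tomatine positive control wells for full effect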; details: SKOV3ip1-GFP adhesion/invasion on 3D omental model, fluorescence; series mostly up to 45.8 µM; activity change, negative = inhibition: at the top concentration
Procedure, shortened: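 Adhesion/invasion was scored as fixed GFP-labeled SKOV3ip1 cell counts (488/509 nm), normalized to DMSO and tomatine controls. Cancer cells in serum-free medium, with four compound doses (0.36-46 umol/L), sat 2 hr at RT then 16 hr at 37 C on a 48 hr fibroblast/mesothelial/ECM culture.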

Activity change, negative = inhibition, inactive:
CO[C@@H]1[C@@H](OC(N)=O)[C@@H](O)[C@H](Oc2ccc3c(O)c(NC(=O)c4ccc(O)c(CC=C(C)C)c4)c(=O)oc3c2C)OC1(C)C -8.92%
Cc1c(C)n(Cc2ccc(Cl)cc2)c2ccc(C(=O)NCCc3ccc(S(N)(=O)=O)cc3)cc12 17.5%
Nc1c(-c2nc(-c3ccc(Cl)cc3)cs2)c2ccccn2c1C(=O)c1ccc2c(c1)OCO2 3.98%
Cc1cc(N2CCCCC2)nc2ccc(NC(=O)c3cccc(F)c3)cc12 -28.9%
CC1CCN(S(=O)(=O)c2ccc3c(c2)N(CC(=O)NC(C)c2ccccc2)C(=O)CO3)CC1 (stereo not given) 6.7%
O=S(=O)(c1cccc(C(F)(F)F)c1)n1c(/C=C/c2ccccc2)nc2ccccc21 -16%
CCCN1CCN(CCCNC(=O)c2cnn(-c3ccc(F)cc3)c2-n2cccc2)CC1 -5.39%
CCOc1ccc(Nc2nc3ccccc3n3c(CC)nnc23)cc1 -11.1%
CCCc1nnc(NC(=O)Cc2coc3cc(C)cc(C)c23)s1 14.9%
O=Nc1c(-c2c(O)[nH]c3cc(Br)ccc23)[nH]c2ccccc12 -28.8%
O=C(NCC(c1ccco1)S(=O)(=O)c1ccc(Cl)cc1)c1ccccc1F (stereo not given) 3.81%
COc1ccc(CCNC(=O)c2nnc(Cc3ccc(Cl)cc3)o2)cc1OC -2.68%
O=[N+]([O-])c1cc(-c2nc(-c3cccnc3)no2)ccc1NCc1ccccc1 49.2%
CCCOC(=O)c1ccc(NC(=O)Cc2csc(C)n2)cc1 9.14%
Cc1c(C(=O)NCc2ccccc2)sc2nc3n(c(=O)c12)CCC3 18.1%
CCOC(=O)c1sc(NC(=O)c2cc(CC)on2)c(C(=O)OCC)c1C -3.72%
Cc1cccc(N2C(=O)CSC23C(=O)N(Cc2cccc(C(F)(F)F)c2)c2ccccc23)c1 (stereo not given) 8.96%
CSc1nc2sc3c(c2c(=O)n1-c1ccccc1C)CCCC3 -1.57%
CN(C)CCNC(=O)CCCN1C(=O)c2cccnc2Oc2ccc(Cl)cc21 5.52%
O=C1CC(c2nc3ccccc3n2CCCOc2ccccc2)CN1c1ccc(F)cc1 (stereo not given) 4.7%
COc1ccc(N2CCN(C(=O)c3ccc(CS(=O)(=O)c4ccc(Br)cc4)o3)CC2)cc1 1.88%
Cc1nc(N2CCCC2)c2c(C(=O)N3CCN(c4cccc(Cl)c4)CC3)c(C)oc2n1 23.3%
C=Cc1ccc(CSc2nc(-c3ccccc3Cl)nc3c2Cc2c(CO)cnc(C)c2O3)cc1 5.8%
C=C(C)[C@@H]1CC[C@]2(C)CC[C@]3(C)[C@H](CC[C@@H]4[C@@]5(C)CC[C@H](O)C(C)(C)[C@H]5CC[C@]43C)[C@@H]12 -3.08%
CCOc1ccc(C2c3c(oc4ccc(C)cc4c3=O)C(=O)N2Cc2ccc3c(c2)OCO3)cc1OC (stereo not given) -7.44%
CCc1ccccc1NC(=O)CSc1ncc2c(n1)-c1ccccc1N(Cc1ccc(C)cc1)S2(=O)=O 7.24%
CCOC(=O)c1ccccc1NS(=O)(=O)c1c(-c2ccc(C)cc2)csc1C(=O)OC 2.63%
Cc1ccc(S(=O)(=O)c2cn(Cc3ccccc3)c3cc(N4CCCC4)c(F)cc3c2=O)cc1C -9.44%
CCN(Cc1ccccc1)C(=O)CCNS(=O)(=O)c1ccc2c(c1)CC(C)N2C(C)=O (stereo not given) 3.95%
COc1ccccc1CNS(=O)(=O)c1c(C)nc2sccn2c1=O -12.3%
CC(C)Oc1ccc(CNC(=O)c2ccc(NC(=O)c3nsc4ccccc34)cc2)cc1 -10.6%
O=C(OCc1ccccc1Cl)c1ccc(-c2nnn(Cc3ccccc3)n2)cc1 1.61%
O=C(Nc1ccc(NC(=O)c2cccs2)cc1)c1ccc(Br)cc1 3.53%
COc1ccc(/C=C(/C#N)c2nc(-c3ccc(-c4ccccc4)cc3)cs2)cc1 -1.85%
CCN(CCCNC(=O)c1cc2cc3cc(C)ccc3nc2s1)c1cccc(C)c1 0.329%
CCOC(=O)Cn1c(=O)cc(-c2ccccc2)c2c(C)nn(C)c21 3.95%
Cc1oc2ncnc(N3CCCCC3)c2c1C(=O)NCC1CCN(Cc2ccc(F)cc2)CC1 9.55%
Cc1nc(-c2ccccc2)sc1-c1ccc(SCC(=O)Nc2ccc(F)cc2F)nn1 -11.4%

outcome, inactive:
COCCCNC(=O)c1cc2c(=O)n3cccc(C)c3nc2s1
CSc1cccc(NC(=O)CN(c2ccccc2)S(=O)(=O)N(C)C)c1
COc1ccc(C2C(=O)N(C3CCC(C)CC3)CC(=O)N2CCc2ccccc2)cc1OC (stereo not given)
O=C(Cn1c(=O)n(-c2ccccc2)c(=O)c2sc3ccccc3c21)N1CCCC1
Cc1ccc(C(=O)N2CCc3cc(CNC(=O)COc4ccccc4)ccc32)cc1
COc1ccc(-c2nn3c(=O)cc(CN4CCN(C(=O)Nc5ccc(C)c(Cl)c5)CC4)nc3s2)cc1
Cc1ccc2oc(=O)c3cnn(CC(=O)Nc4cccc(C(F)(F)F)c4)c3c2c1
CC(C)OCCCNC(=O)CCCn1c(SCC(=O)c2ccc(F)cc2)nc2c(sc3ccccc32)c1=O
O=C(Nc1ccc(Br)cc1)C1CCN(S(=O)(=O)c2cccc3nsnc23)CC1
CC(C)c1ccc(NC(=O)CN2C(=O)COc3ccc(S(=O)(=O)Nc4ccccc4)cc32)cc1
COCC(=O)N1c2nc(C(C)C)nn2C2(CCCCC2)[C@@H]2CCCC[C@@H]21
CCC(=O)N1CCc2cc(Br)cc(S(=O)(=O)NCc3ccc(Cl)cc3)c21
Cc1ccc(N2CC(C)Cn3c2nc2c3c(=O)n(CC(=O)O)c(=O)n2C)cc1 (stereo not given)
Cc1cc(C)cc(-n2ccn(CC(=O)Nc3ccccc3C(F)(F)F)c(=O)c2=O)c1
CCN(c1ccccc1)c1nnc(NC(=O)Nc2cccc(Br)c2)s1
Cc1ccc(CNC(=O)c2ccc(CSCc3ccc(C)cc3)o2)cc1
CCN(c1ccc(OC)cc1)S(=O)(=O)c1nnc(NC(=O)c2ccccc2Cl)s1
CCN(C(=O)Cn1ncc2c1-c1cc(C)ccc1OC2)c1cc(Cl)ccc1OC
Cc1nc(-c2ccccc2)sc1CCNC(=O)c1ccco1
COc1cccc(CNC(=O)CCc2c(C)c3cc4c(C)c(C)oc4cc3oc2=O)c1
CC(C)(C)C(=O)Nc1ccc2nc(SCC(=O)N3CCCC3)sc2c1
Cc1ccc(C)c(NC(=O)C(=O)NCCc2csc(-c3ccc(C(F)(F)F)cc3)n2)c1
